PubChem BioAssay AID504832 (National Center for Advancing Translational Sciences (NCATS), 2011)
Hit rate of the full screen: of about 310,000 compounds, about 18,000 (5.8%) were called active. The inconclusive results got no clear call from the source; some entries with a clear call stand among them for comparison. The call rests on the fitted dose curve; in most records, active means well fitted inhibition curve with a large enough effect; inconclusive means small, poorly fitted or top-dose-only effect, or another doubt; inactive means no such curve, though single readings can be large or run the other way. Potencies of inconclusive entries are left out as doubtful fits.

Experiment: Primary qHTS for delayed death inhibitors of the malarial parasite plastid, 48 hour incubation
Conditions: P. falciparum luciferase growth in erythrocytes; series mostly up to 28.7 µM; activity change, negative = inhibition: at the top concentration
Method in brief: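 Growth was read as firefly luciferase luminescence after a 48 h, 37 C, 5% CO2 exposure of compounds to reporter-bearing P. falciparum cultures (0.1% parasitemia, 2% hematocrit final) in Albumax-supplemented RPMI 1640.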
On the % scale 0 is the no-effect control and ±100 the full control effect; potency means the concentration at half of the fitted maximal effect; tags describe the fitted curve by direction and shape.

Compound | activity change, negative = inhibition | Potency
O=C(COC(=O)c1ccccc1-n1cnnn1)c1ccc(F)c(F)c1 | inactive: 59.4% | –
O=[N+]([O-])/C(C=Nc1ccccc1O)=C\Nc1ccccc1O | – | inconclusive [inhibitor, partial curve, poor fit]
CCOc1ccc(NC(=O)CSc2nnnn2C2CC2)cc1S(=O)(=O)N1CCCC1 | – | inconclusive [inhibitor, single point]
CCOc1cccc(NC(=O)C2CCCN(S(=O)(=O)c3ccc(-n4cnnn4)cc3)C2)c1 (stereo unspecified) | – | inconclusive [inhibitor, partial curve, poor fit]
COC(=O)Cn1c(=O)c2c(nc3n2CC(C)CN3CCc2ccccc2)n(C)c1=O (stereo unspecified) | – | inconclusive [inhibitor, partial curve]
COc1cccc(NC(=O)C(NC2CCCC2)c2ccccc2)c1 (stereo unspecified) | – | inconclusive [inhibitor, partial curve]
Oc1ccccc1-c1cc(C(F)(F)C(F)F)[nH]n1 | – | inconclusive [inhibitor, single point]
CC(=O)NCc1ccc(S(=O)(=O)N/N=C/c2ccc(N(C)C)cc2)cc1 | inactive: 12.6% | –
COc1ccc(C(=O)NCCCN2CCOCC2)cc1S(=O)(=O)N1CCCc2ccccc21 | – | inconclusive [inhibitor, full curve, poor fit]
COC(=O)[C@H](Cc1ccccc1)NC(=O)N1CCN(c2ccc(F)cc2)CC1 | – | inconclusive [inhibitor, partial curve, poor fit]
O=C(NCCC1=CCCCC1)NC12CC3CC(CC(C3)C1)C2 | inactive: -4.16% | –
CCOc1ccc(N2CC(=O)N(c3ccc(OCC)cc3)CC2=O)cc1 | inactive: 30.5% | –
COC(=O)C1=C(C(=O)c2ccccc2)C(c2ccc(O)c(OC)c2)n2nnnc2N1 (stereo unspecified) | inactive: -0.343% | –
CN(CC(=O)Nc1cccc(F)c1)C(=O)/C=C/c1ccc(Br)s1 | inactive: -4.21% | –
CCOc1ccc(C2CC(c3cccc(OC)c3)n3nc(N)nc3N2)cc1 (stereo unspecified) | inactive: 4.66% | –
Brc1ccc(C2C3=C(Nc4ncnn42)c2ccccc2OC3c2ccncc2)cc1 (stereo unspecified) | – | active: 13.1 µM
COc1ccc(NC(=O)C(=O)NCC(c2ccco2)N2CCc3ccccc3C2)cc1 (stereo unspecified) | – | active: 13.1 µM
NC(=O)C1CCN(C2=C(Cl)C(=O)c3ccccc3C2=O)CC1 | – | inconclusive [inhibitor, single point]
COc1cccc(CNCc2ccc(OC)c3ccccc23)c1OC | – | inconclusive [inhibitor, partial curve]
Fc1ccccc1C1c2cccn2CCN1C(=S)Nc1cccc(Br)c1 (stereo unspecified) | – | active: 9.28 µM
CC(Sc1cccc[n+]1[O-])c1ccccc1 (stereo unspecified) | inactive: -4.64% | –
COCCn1nnnc1C(C(C)C)N1CCCC(C)C1 (stereo unspecified) | inactive: -6.78% | –
COc1ccc(/C=N/N(CCC(=O)NC(C)(C)C)C2=NS(=O)(=O)c3ccccc32)cc1 | – | active: 6.57 µM

Compound | activity change, negative = inhibition | Potency
OC(c1ccncc1)(c1ccc(F)cc1)c1ccc(F)cc1 | – | inconclusive [inhibitor, partial curve]
CCOC(=O)c1oc2ccccc2c1NC(=O)c1cc(OC)cc(OC)c1 | – | inconclusive [inhibitor, partial curve, poor fit]
CN1CCN(S(=O)(=O)Cc2ccc(Cl)cc2)CC1 | – | inconclusive [inhibitor, single point]
C/C=C/c1ccc(OCCN2C(=O)NC(C)(C)C2=O)c(OC)c1 | – | inconclusive [inhibitor, single point]
Cc1ccc(C(C(=O)NCc2ccccc2)N(C(=O)c2csnn2)c2cccc3ccccc23)o1 (stereo unspecified) | – | inconclusive [inhibitor, single point]
Cc1ccc(/C=C/C(=O)OCC(=O)N(CC(C)C)c2c(N)n(Cc3ccccc3)c(=O)[nH]c2=O)o1 | – | inconclusive [inhibitor, full curve]
CCCc1cnc(NCCNCC(O)COc2ccc(Cl)c(Cl)c2)nc1 (stereo unspecified) | – | inconclusive [inhibitor, single point]
CCOC(=O)N1CCN(CCC(=O)Nc2ccccc2OC)CC1 | inactive: 14.1% | –
COc1ccc(C(=O)OCCOc2cccc(Cl)c2)cc1S(=O)(=O)N1CCOCC1 | inactive: 0.381% | –
CCCCCCCn1c2c(c(=N)c3ccccc31)CCC2 | – | active: 0.928 µM
C/C(=N/NC(=O)c1ccc(O)cc1)c1cccc([N+](=O)[O-])c1 | inactive: 43.3% | –
CCCCCC(=O)Nc1cccc(C2=NOC3(C2)C[C@@H](C(N)=O)N(C(=O)c2cc([N+](=O)[O-])cc([N+](=O)[O-])c2)C3)c1 (stereo partly specified) | – | inconclusive [inhibitor, single point]
CCc1c(C(=O)NCCc2cccc(C)c2)[nH]c(C)c1C(C)=O | inactive: -26.9% | –
CCOC(=O)c1[nH]c2ccc(OC)cc2c1NC(=S)N1CCN(c2ccccc2OC)CC1 | – | inconclusive [inhibitor, partial curve, poor fit]
O=C(NNc1nc2c(F)cc(F)cc2s1)C1=COCCO1 | inactive: -1.98% | –
CSc1ncc(CN2CCCC(C(=O)Nc3ccc(-c4ccco4)cc3)C2)cn1 (stereo unspecified) | – | inconclusive [inhibitor, partial curve]
COc1ccc(NC(=O)CSc2nnc3n2CCCCC3)cc1 | inactive: -1.66% | –
CC(=O)N=c1sc(C(C)(C)C)c(C)n1C | – | inconclusive [inhibitor, partial curve, poor fit]
CCN(CC)S(=O)(=O)c1cccc2c(N(C)C)cccc12 | – | inconclusive [inhibitor, single point]
Cn1c(CCN2CCN(c3ccc(F)cc3)CC2)nc2cc(NC(=O)c3ccco3)ccc21 | – | inconclusive [inhibitor, single point]
O=C(OCc1cccc(Cl)c1)c1cc([N+](=O)[O-])ccc1N1CCOCC1 | – | inconclusive [inhibitor, single point]
COc1cc(-n2nnnc2SCC(=O)N2CCN(c3ccc(F)cc3)CC2)c(OC)cc1Cl | – | active: 14.7 µM
Cc1ccccc1N(C(=O)CNC(=O)c1ccco1)C(C(=O)NC1CCCC1)c1ccncc1 (stereo unspecified) | – | inconclusive [inhibitor, full curve, poor fit]
